Measurements as given in the RNAGym collection of RNA variant scans (doi:10.1093/nar/gkz1192).
The source gives no read counts; variants with many changes may rest on few reads.

B1: CPEB3 Ribozyme (parent)
chain: UAACAGGGGGCCACAGCAGAAGCGUUCACGUCGCAGCCCCUGUCAGAUUCUGGUGAAUCUGCGAAUUCUGCUGUAUAUCUC

Variants of: B1
Assay: self-cleavage, relative activity (ratio to wild type); higher = more cleavage; in vitro, sequencing
Summary of the method: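 Barcoded CPEB3 ribozyme mutants, produced by rounds of error-prone PCR, self-cleaved while being transcribed with T7 RNA polymerase for 5 hours at 37°C and during a subsequent 15 min DNase I step before EDTA was added. Sequencing of template-switched cDNA on Illumina gave cleaved and total reads, and DNA sequencing assigned barcodes to variants. Each variant's relative activity is its cleaved/total read fraction divided by the unmutated ribozyme's fraction, averaged across three batches. A variant needed a minimum of 5 reads.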

Q: For UAACAGGGGGCCACAGCAGGAGCGUUCAUGUCGCAGCCCCUGUCAGAUUCUGGCGAAUCUGCGAAUUCCGCUGUAUAUCUC [A20G C29U U54C U69C], which self-cleavage is on record?
A: 0.14

Q: For UAACAGGGGGCCACAGCAGGAGCGUUCAUGUCGCAGCCCCUGUCAGAUUCUGGUGAAUCCGCGAAUUCUGCUGUAUAUCUC [A20G C29U U60C], which self-cleavage is on record?
A: 0.24

Q: Which self-cleavage does the source give for UAACAGGGGGCCACAGCAGGAGCGUUCAUGUCGCAGCCCCUGUCAGAUUCUGGUGAAUCUGCGAAUCCUGCUGUAUACCUC [A20G C29U U67C U78C] here?
A: 0.27

Q: For UAACAGGGGGCCACAGCAGGAGCGUUCAUGUCGCAGCCCCUGUCAGAUUCUGGUGAAUCUGCGAAUUCUGCUGUACAUCUC [A20G C29U U76C], which self-cleavage is on record?
A: 0.38

Q: With UAACAGGGGGCCACAGCAGGAGCGUUCACGUAGCAGCCCCUGUCAGAUUCUGGUGAAUCUGUGAAUUCUGCUGUAUAUCUC [A20G C32A C62U] as the variant, how does the self-cleavage read?
A: 0.53

Q: Which self-cleavage does the source give for UAACAGGGGGCCACAGCAGGAGCGUUCACGUAGCAGCCCCUGUCAGAUUCUGUUGAAUCUGCGAAUUCUGCUGUAUAUCUC [A20G C32A G53U] here?
A: 0.3

Q: Which self-cleavage does the source give for UAACAGGGGGCCACAGCAGGAGCGUUCACGUAGCAGCCCCCGUCAGAUCUUGGUGAAUCUGCGAAUUCUGCUGUAUAUCUC [A20G C32A U41C U49C C50U] here?
A: 0.1

Q: With UAACAGGGGGCCACAGCAGGAGCGUUCACGUGGCAGCCCCUGUCAGAUUCUGGUGAGUCUGCGGGUUCUGCUGUAUAUCUC [A20G C32G A57G A64G A65G] as the variant, how does the self-cleavage read?
A: 0.12

Q: With UAACAGGGGGCCACAGCAGGAGCGUUCACGUUGCGGCCCCUGUCAGAUUAUGGUGAAUCUGCGGAUUCUGCCGUAUAUCUC [A20G C32U A35G C50A A64G U72C] as the variant, how does the self-cleavage read?
A: 0.07

Q: Which self-cleavage does the source give for UAACAGGGGGCCACAGCAGGAGCGUUCACGUUGCAGCCCCUGACAGAUUCUGGUGAAUCCGCGAAUUCUGUUGUACAUCUC [A20G C32U U43A U60C C71U U76C] here?
A: 0.05

Q: With UAACAGGGGGCCACAGCAGGAGCGUUCACGUCGAAGCCCCUGUCGGAUUCUGGUGAAUCUACGAAUUCUGCUGUAUAUCUC [A20G C34A A45G G61A] as the variant, how does the self-cleavage read?
A: 0.18

Q: Which self-cleavage does the source give for UAACAGGGGGCCACAGCAGGAGCGUUCACGUCGUAGCCCCUGCCAGAUUCUGGUGAACCUGCGAAUUCUGCUGUAUGUCUC [A20G C34U U43C U58C A77G] here?
A: 0.05

Q: For UAACAGGGGGCCACAGCAGGAGCGUUCACGUCGUAGCCCCUGUCAGAUUCUGGUGAAUCUGCGAAUCCUGCUGUAUAUCUC [A20G C34U U67C], which self-cleavage is on record?
A: 0.32

Q: Which self-cleavage does the source give for UAACAGGGGGCCACAGCAGGAGCGUUCACGUCGCAGACCAUGCCAGAUUCCGGUGAAUCUGCGUAUUCUGCUGUACAUCUC [A20G C37A C40A U43C U51C A64U U76C] here?
A: 0.05

Q: Which self-cleavage does the source give for UAACAGGGGGCCACAGCAGGAGCGUUCACGUCGCAGUCCCCGUCAGAUUCUGGUGGAUCUGCGAAUUCUGCUGUGUAUCUC [A20G C37U U41C A56G A75G] here?
A: 0

Q: Which self-cleavage does the source give for UAACAGGGGGCCACAGCAGGAGCGUUCACGUCGCAGUCCCCGUCAGAUUCUGGUGAACCUGCGAAUUCCGCCGUAUAUCUC [A20G C37U U41C U58C U69C U72C] here?
A: 0.13

Q: Which self-cleavage does the source give for UAACAGGGGGCCACAGCAGGAGCGUUCACGUCGCAGUCCCUGUCAGAUUCUGGUGAAUCCGCGAAUUCUGCUGUAUAUCUC [A20G C37U U60C] here?
A: 0.4

Q: Which self-cleavage does the source give for UAACAGGGGGCCACAGCAGGAGCGUUCACGUCGCAGCACCCGUCAGAUUCUGGUGAAUCUGCGAAUUCUGCUGUAUAUCUC [A20G C38A U41C] here?
A: 0.15

Q: For UAACAGGGGGCCACAGCAGGAGCGUUCACGUCGCAGCUCCUGACAGAUUCUGGUGAACCUGCGAAUUCAACUGUAUAUCUC [A20G C38U U43A U58C U69A G70A], which self-cleavage is on record?
A: 0.11

Q: For UAACAGGGGGCCACAGCAGGAGCGUUCACGUCGCAGCUCCUGUCAGAAUCUGGCGAAUCUGCGAAUUCCGCGGUAUAUCUC [A20G C38U U48A U54C U69C U72G], which self-cleavage is on record?
A: 0.15

Q: Which self-cleavage does the source give for UAACAGGGGGCCACAGCAGGAGCGUUCACGUCGCAGCUCCUGUCAGAUUCCGGUGAAUCUGCGAAUUCUGCUGUAUAUCUC [A20G C38U U51C] here?
A: 0.17

Q: For UAACAGGGGGCCACAGCAGGAGCGUUCACGUCGCAGCCACUGCCAGAUUCUGGUGAAUCUGCGAAUUCUGCUGUAUAUCUC [A20G C39A U43C], which self-cleavage is on record?
A: 0.39

Q: With UAACAGGGGGCCACAGCAGGAGCGUUCACGUCGCAGCCCAUGUCAGAUCCUGGCGAAUCUGCGAAUUCUGCAGUACAUCUC [A20G C40A U49C U54C U72A U76C] as the variant, how does the self-cleavage read?
A: 0.08

Q: Which self-cleavage does the source give for UAACAGGGGGCCACAGCAGGAGCGUUCACGUCGCAGCCCUUGUCAGGUUCUGGUUAAUCUGCGAAUUCUGCUGUAUACCUC [A20G C40U A47G G55U U78C] here?
A: 0.12

Q: For UAACAGGGGGCCACAGCAGGAGCGUUCACGUCGCAGCCCUUGUCAGAUUCUGGUGAAUCUGCGGAUUCUGCUGUAUAUCUC [A20G C40U A64G], which self-cleavage is on record?
A: 0.06

Q: With UAACAGGGGGCCACAGCAGGAGCGUUCACGUCGCAGCCCUAGUCAGAUUCUGGUGAAUCUGCGAACUCUGCUGUAUAUCUC [A20G C40U U41A U66C] as the variant, how does the self-cleavage read?
A: 0.2

Q: For UAACAGGGGGCCACAGCAGGAGCGUUCACGUCGCAGCCCUCGUCAGAUUCUGGUGAAUCUGCGAAUUCUGCAGUAUAUCUC [A20G C40U U41C U72A], which self-cleavage is on record?
A: 0.36

Q: Which self-cleavage does the source give for UAACAGGGGGCCACAGCAGGAGCGUUCACGUCGCAGCCCUUGUCAGAUUCUGGUGAAUCUGCGAAUUCUGCCGUAUAUCUC [A20G C40U U72C] here?
A: 0.77

Q: Which self-cleavage does the source give for UAACAGGGGGCCACAGCAGGAGCGUUCACGUCGCAGCCCCUGUAAGACUCUGGUGAAUCCACGAAUUCUGCUGUAUUUCUC [A20G C44A U48C U60C G61A A77U] here?
A: 0.06

Q: With UAACAGGGGGCCACAGCAGGAGCGUUCACGUCGCAGCCCCUGUCAGAUUCUGGUGAAUCUGUGAAUUCUGCAGUAUAUCUC [A20G C62U U72A] as the variant, how does the self-cleavage read?
A: 0.16

Q: Which self-cleavage does the source give for UAACAGGGGGCCACAGCAGGAUCGUUCACGUCGCUGCCCCUGACAGAUUCUGGUGAAUCUGCGAAUUCUGCUGUAUAUCCC [A20G G22U A35U U43A U80C] here?
A: 0.28

Q: For UAACAGGGGGCCACAGCAGGAGCAUUCGCGCCGCAGCCCCCGUCUGAUUCUGGUGAAUCUGCGAAUUCUGCUGUAUAUCUC [A20G G24A A28G U31C U41C A45U], which self-cleavage is on record?
A: 0.18

Q: For UAACAGGGGGCCACAGCAGGAGCAUUCGCGCCGCAGCCCCCGUCAGAUUCUGGUGGAUCUGCGAAUUCUGCUGUAUAUCUC [A20G G24A A28G U31C U41C A56G], which self-cleavage is on record?
A: 0.16

Q: Which self-cleavage does the source give for UAACAGGGGGCCACAGCAGGAGCAUUCGCGCCGCAGCCCCUGUCAGAUCCUGGUGAAUCUGCGAAUUCUGCUGUAUAUCUC [A20G G24A A28G U31C U49C] here?
A: 0.13
